In the supplement of paper PMC3334620:
In all, about 33,000 sequences were measured (“E-score (-0.5 to 0.5)”: median about -0.021, highest 2% from about 0.32 on). This is one part of the list.

Molecular target: T1, Zap1 (UniProt P47043)
T1 sequence: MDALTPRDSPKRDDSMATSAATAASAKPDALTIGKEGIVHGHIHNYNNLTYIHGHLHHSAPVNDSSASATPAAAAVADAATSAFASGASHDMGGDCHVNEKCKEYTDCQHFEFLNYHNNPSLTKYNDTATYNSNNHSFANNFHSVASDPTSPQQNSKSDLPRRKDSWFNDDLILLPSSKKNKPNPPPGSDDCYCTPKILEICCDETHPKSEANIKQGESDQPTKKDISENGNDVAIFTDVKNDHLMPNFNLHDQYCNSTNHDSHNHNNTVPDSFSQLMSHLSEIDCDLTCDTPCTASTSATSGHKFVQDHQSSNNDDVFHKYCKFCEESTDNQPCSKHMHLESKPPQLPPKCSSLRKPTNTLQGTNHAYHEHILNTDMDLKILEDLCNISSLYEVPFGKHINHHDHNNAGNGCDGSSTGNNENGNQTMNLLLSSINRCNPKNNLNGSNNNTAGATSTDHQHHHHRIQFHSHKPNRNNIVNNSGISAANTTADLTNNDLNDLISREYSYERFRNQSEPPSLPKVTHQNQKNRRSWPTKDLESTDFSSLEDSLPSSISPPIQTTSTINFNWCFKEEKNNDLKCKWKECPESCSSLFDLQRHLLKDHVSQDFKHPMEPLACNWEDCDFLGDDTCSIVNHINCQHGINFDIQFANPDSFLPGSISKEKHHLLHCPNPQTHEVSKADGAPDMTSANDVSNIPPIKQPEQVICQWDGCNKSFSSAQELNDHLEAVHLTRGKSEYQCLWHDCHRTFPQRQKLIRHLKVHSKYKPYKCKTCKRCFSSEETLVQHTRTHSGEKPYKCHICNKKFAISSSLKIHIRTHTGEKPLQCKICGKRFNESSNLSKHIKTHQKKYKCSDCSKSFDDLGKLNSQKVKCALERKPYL
Assay: PBM E-score (8-mer binding enrichment) (E-score (-0.5 to 0.5)); higher = stronger / more preferred TF binding; most listed sequences are background and not binding sites
Conditions: protein concentration: 200 nM; construct: GST-full length
How it was run: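 Yeast transcription factors, full-length or as DNA-binding domains, were expressed with a GST tag using PURExpress in vitro transcription/translation. At about 100-200 nM they were applied to universal all-10-mer Agilent arrays, double-stranded by primer extension on fresh or once-stripped slides. Fluorescent anti-GST detected bound protein, and masliner normalised the scans. E-scores for ungapped eight-base words, pooled with reverse complements, came from the Universal PBM Analysis Suite.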

Sequence	PBM E-score
CCTCGTCA	0.0491
ACTCAGTG	-0.169
CCCTGTAA	0.195
CTAGTTGA	0.0622
AAAAAGCT	-0.0153
CTCACTAC	0.177
AATTAGAG	-0.111
GGCCGACC	0.00035
TATGCAAA	-0.0715
AAATGCTA	-0.0918
AGAATATA	-0.0634
AACGGGCA	-0.0723
AATGCATC	-0.124
AGGGTAAT	0.38
ACGATTCA	-0.0795
CGCTCCCC	-0.242
TCCTCAAA	-0.00867
AAGTCATA	0.0794
GATACTAA	0.0612
GATTGGAA	0.0332
AACCGGCG	0.0905
AGAGGGGA	-0.334
GTCTCACA	0.0106
GCAACCGC	0.214
ATGGAAAG	0.0699

Sequence	PBM E-score
ACGCAAGA	-0.0414
ACAGGTTG	0.147
CCGTTTCA	0.0816
CCACGCTA	-0.138
CAGTGTCA	0.0193
CTCTACGA	-0.0991
TACATAGA	-0.0363
AGCCTCCG	-0.195
GACCCATC	0.0889
GAAACACA	0.105
CAGCGACA	-0.0507
CGCGGAAA	-0.0175
CGCAGAAC	0.0417
CTGCTGCA	-0.135
CATTTCGG	-0.0293
ACGGATAA	-0.0719
CCACTTCC	0.13
ATCAAGAC	0.00604
AGTTTGAC	0.0941
AGTCCTGG	-0.201
AACTTTGA	0.0223
AGGAAAGA	-0.0817
ACCCGTCG	0.085
AGCACTCG	-0.332
CGCATCTC	-0.135

Sequence	PBM E-score
CAAAGATG	-0.129
TCCTCGCA	-0.194
CCATCCTC	-0.232
AATAGAGG	0.0909
CCGCCGAG	-0.0804
ATCTTACG	-0.117
AAGTTTGG	0.0933
CGACAACG	-0.187
AACTGCGG	-0.0727
ATTAACGA	0.239
GACAGACA	0.219
AACATGTC	0.0904
CTTTGCCA	-0.0626
AGTTTATC	0.145
ATTGCGGC	-0.0608
CTGGAGGC	0.0587
ATTATCTG	0.0467
ACCGCAAA	0.205
CCCGGGAA	-0.0842
AATTCTTA	-0.119
ATTCGGGA	-0.177
CCATCGTA	-0.0384
AGGTTAAC	0.405
CCGTAGCA	-0.235
CATTGACG	-0.151

Sequence	PBM E-score
GAACGAAA	-0.00047
CCAGTGGG	-0.0925
ATAGAGTC	-0.232
ACCTTTGC	0.247
GGTACTTA	0.202
ACACGTCC	-0.257
CCGTCCGA	-0.211
AAGATCGC	-0.105
CCGGGAAG	-0.0734
AGAGTATG	-0.137
CCAATTTC	-0.0198
CGATACAG	-0.0104
CAGTAGCC	-0.236
AAATCGCT	-0.241
ATGGACAG	-0.0773
ATATCTCC	-0.149
GTGAAGAA	-0.0109
GTCGAGAA	-0.0294
AGGTGCAA	0.0924
GGAAATCA	-0.172
CCCCAAAG	0.0964
CAACGAAG	-0.103
CTACCAAG	0.0784
AAGGCCAG	-0.0239
AGCGTACT	-0.127

Sequence	PBM E-score
ATATGTTG	-0.0991
AGGGCGGG	0.135
AGACCAAT	0.0466
TACTTGAA	0.0507
GCAGTACA	-0.103
GGATTACA	-0.00429
CGAGAATA	0.00254
ACACACAC	0.117
GAAGGGGC	-0.241
TGAGAACA	0.0166
AGTGATAT	0.0147
CATCTTGG	-0.173
CATCGGCA	-0.172
CGAAGTAC	-0.0344
ATCCGCTC	-0.265
ATCGCCAT	-0.132
AAACGCGA	-0.00668
GTCGCGTA	0.0817
ACTTATAG	-0.136
AAGCGAGT	0.0526
ATTAAAAG	0.186
ATAAAGAC	0.133
ACCCCCAC	-0.286
TAAGGGGA	0.00031
ATAACAAT	0.0875

Sequence	PBM E-score
ATCATCGG	-0.0345
AGCGTCAA	-0.129
GCGCGTTA	0.1
AGAGTCAT	-0.0584
ATTGACGC	-0.0257
ACTTCGAA	0.0192
GGGCGCAC	-0.275
CTCCCTAC	-0.161
CAGTATCC	-0.0554
GAACCGAC	-0.0415
CGGATAAC	0.211
CGTGGTCA	0.195
ACTCTGGC	-0.231
AATATTAC	0.166
ATAAAATG	0.232
ATATCGCA	-0.0843
AAGGACCA	0.0345
AGCGGGAT	-0.167
ATTTCATG	-0.119
GATATGGC	-0.378
CTGTTGGA	0.0611
AGACAGAA	-0.146
CCGGGAGG	-0.0571
CAGAAGGC	-0.263
CGAAATGA	0.0466

Sequence	PBM E-score
ATTGAGTA	0.205
GGAGACTA	-0.0722
ACAGATGG	-0.16
ATGGTCGA	-0.122
AGGATGAC	-0.215
ACACGTGT	-0.162
CCGCCAGC	-0.217
GGAAGAGA	-0.226
GAACGTCA	-0.311
CGGTATTA	0.0852
ACGGTCCA	0.0301
CCCCGCTC	-0.186
CGATCAAC	-0.146
GCTATATA	0.128
TACACTAA	0.159
ACCGCCCC	0.0984
ACATCACG	-0.0175
ATGAGATG	-0.198
AGCTTAAG	-0.0625
CTTTGCTC	-0.13
ATGGCCTG	-0.00074
AAAGAGCC	-0.272
